This is one part of the list.

The test concerns PfAP2-HC AP2 domain (GST-tagged). As to the kind of experiment: gcPBM binding intensity (ln(normalized median fluorescence intensity)); higher = stronger DNA binding. In outline:
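The highest Masliner-normalised natural-log median intensity across replicate spots of either probe orientation is reported as binding intensity. GST-tagged P. falciparum DNA-binding domains expressed in E. coli were applied for 1 h to an Agilent 4 × 180k array of primer-extended double-stranded 36-bp intergenic genomic probes plus negative controls, and bound protein was detected with Alexa488 anti-GST antibody and scanned at 488 nm.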
For the sequence “ATGACTCTCAAGTTTGCACACATTTATATTTTTTAA [CACACA_site2605]”, the “gcPBM binding intensity (ln)” value turned out to be 10.1.
For the sequence “TATACATACCATAATGCATGTAAGAACAAATAACTG [TGCATGCA_site264]”, the “gcPBM binding intensity (ln)” value turned out to be 9.79.
On to “AAAAAAAAAAAAAAGGTGCATACTTTGAATTAATAT [GTGCAC_site9401]”, for which the “gcPBM binding intensity (ln)” value is 9.56.
With “GTATATCATATTTCATGTACACAAAAAAATAAAAAT [XGTACX_site704]”, the “gcPBM binding intensity (ln)” value was determined as 9.79.
On to “ACAAAATTTACAAAATGTACAAAATTTACAAAGTAT [XGTACX_site6463]”, for which the “gcPBM binding intensity (ln)” value turned out to be 9.61.
In the case of “TATATATATTATATATGTACATATTATATATATATA [XGTACX_site7300]”, the “gcPBM binding intensity (ln)” value worked out at 9.39.
Regarding “ATATATTTGATAAGAGTGCACAAATACATACATACA [GTGCAC_site9704]”, the “gcPBM binding intensity (ln)” value is 9.89.
With “AAAAAAAAAAAATGCACACATATATTTCCATATACA [CACACA_site1471]”, the “gcPBM binding intensity (ln)” value worked out at 9.78.
Take “TATATATATAAACACACACACATATATATATATATA [CACACA_site4584]”: the “gcPBM binding intensity (ln)” value worked out at 10.
TTTAAAATACAGAAGGTGCATTTAACATATTTGTAT: the “gcPBM binding intensity (ln)” value is 9.55.
In the case of “ATATATATATATATATGTACTAATTAATATTTCGAG [XGTACX_site580]”, the “gcPBM binding intensity (ln)” value came to 9.44.
Take “ATATATATATATGAATCACACACAAAAAATATAGAG [CACACA_site9298]”: the “gcPBM binding intensity (ln)” value came to 10.1.
The value for “ATAAAATAATGAAAAACACACATTTTTATTTGTATA [CACACA_site3369]” was 9.7; that for “AATAACATGTTATATACACACATTATGAAGTCTTCA [CACACA_site746]” was 9.71.
For the sequence “ATTGTTTTTTTTTCTTTGTGGAATGAATGAATATAT [XGTACX_negctrl_site603]”, the “gcPBM binding intensity (ln)” value was determined as 9.55.
On to “AAGATTATAAATATATGTACATAAATATATTATATA [XGTACX_site8056]”, for which the “gcPBM binding intensity (ln)” value was found to be 9.64.
For the sequence “ATAATACTACCTACATGTACTTATATATAAATGAAT [XGTACX_site3417]”, the “gcPBM binding intensity (ln)” value amounted to 9.79.
Take GTTTTAACAAAATTAGTGCATTTATCAATTATATAA: the “gcPBM binding intensity (ln)” value worked out at 9.32.
Consider “TTTTTTTTTTCAATGGCACACATTTTAGATTTATGC [CACACA_site1074]”, for which the “gcPBM binding intensity (ln)” value came to 9.72.
Turning to “ACATCAAGCGGACACACACACACACCGACAGACACA [CACACA_site4361]”, the “gcPBM binding intensity (ln)” value was determined as 10.9.
With AAAGAATCAAGAATAGTGCAAATATGTATAACCTTT, the “gcPBM binding intensity (ln)” value was 9.99.
Turning to “ATACAAAAAGTAAAAAGTACTTAACTAAATATATAA [XGTACX_site2335]”, the “gcPBM binding intensity (ln)” value was 9.71.
As for “TTTTCAATATATTAATGTACGAATACGCAAATAAGA [XGTACX_site1613]”, the figure is 9.55; as for “TTAATAAATAAAAATGCACACAGTTAACATGTTGAA [CACACA_site1200]”, 9.74.
The value for “GCACATAAATATATGACACACACACCGATTATATAT [CACACA_site9003]” was 10.8; that for “AAAAAAAAAAAAAAAACACACAAACATCAAATTATT [CACACA_site5083]” was 9.85.
With “ATAATAATTTAATACATACACACGTATATCTTTTTT [CACACA_site2041]”, the “gcPBM binding intensity (ln)” value turned out to be 9.84.
With “TTTTTTTTTTTTTTTGCACACACATAATAGGTACAA [CACACA_site3578]”, the “gcPBM binding intensity (ln)” value is 9.95.
With “GCAGGATTGGTTCAAACACACATATTATATGACTAT [CACACA_site660]”, the “gcPBM binding intensity (ln)” value is 9.77.
“ATCTTATATGATCACACACACACGCACAAAACAGAA [CACACA_site4913]”: the “gcPBM binding intensity (ln)” value amounted to 10.4.
The value for “TGTGGTTACATGTGCACACACTTATTTCGTTCTTAT [CACACA_site4907]” was 10.4; that for “TAAATATATATATACACACACATACACAAAAAAAAA [CACACA_site3580]” was 10.5.
“ATTGCATATAATGGCACACATAAATCCATAATATAT [CACACA_site297]”: the “gcPBM binding intensity (ln)” value was found to be 9.74.
As to “TTTATATATATATATATATATAATAAATGATACACA [TGCATGCA_negctrl_site392]”, the “gcPBM binding intensity (ln)” value amounted to 9.61.
As for “TATTTTTTTTCTTATACACACCATGCATCAAACTAA [CACACA_site5208]”, the figure is 9.72.
Turning to “TCAAAAATATTCTGGAGTACCTTTTTAAAGGTATAG [XGTACX_site6893]”, the “gcPBM binding intensity (ln)” value came out at 9.37.
As for “TTTGCACCGTTTAAGTGTACAGAATTATGACATATA [XGTACX_site6735]”, the figure is 9.51; as for “ATTAAAAAAATTAAAAGTACACATATTTCAATGATA [XGTACX_site5606]”, 9.4.
The value for “TAAGTTATATGTATATGTACTTATATATATATATAT [XGTACX_site5402]” was 9.66; that for “TAAAAAAAAAAAAAAACACACATATAAATATATATA [CACACA_site1243]” was 9.62.
In the case of “AAAATTAAAAAGAACACACAAATATATCTATAATAA [CACACA_site7660]”, the “gcPBM binding intensity (ln)” value was found to be 10.
The value for “TAATCGAAACAAAGAACATGCAAACATATACCTATA [TGCATGCA_site894]” was 9.65.
Regarding “CAAAATTTATGTAAAAGTACAAAAATATAGAAAGAT [XGTACX_site1122]”, the “gcPBM binding intensity (ln)” value stood at 9.88.
The value for “TGTGTTCATCTATGCACACGCATATATATTATTGTT [CACACA_site5985]” was 9.9; that for “TTTTATTCCTTCTTTGCACACGTTTAAAAATATATA [CACACA_site2899]” was 9.88.
Regarding “AATATAATATAAGGATCACACACAAACACCCATATA [CACACA_site8084]”, the “gcPBM binding intensity (ln)” value came to 10.3.
The value for “TTTATATAAAAAAATTGTACATATTTATTATAAACA [XGTACX_site2124]” was 9.41.
The value for “TGTATGCATATTTGATGTACGCACATATACTAATTT [XGTACX_site3159]” was 9.7.
“ATAATAAATAAAATAACACACATATATAGATATATA [CACACA_site6224]”: the “gcPBM binding intensity (ln)” value was found to be 10.
For “TATATTCTTATTATTGCATGCTGCACGAAGATTTTC [TGCATGCA_site831]”, the “gcPBM binding intensity (ln)” value was determined as 9.74.
The value for “GTATGTTTGTTATGCACACAAATGCATCTTATTTCC [CACACA_site2690]” was 10; that for “TTTAATTATAAGATAACACACAAAAAAAATAAAATA [CACACA_site254]” was 9.86; that for “TATTTAATTACATGAACACACATTATGTATTTTTAA [CACACA_site2962]” was 9.74.
The value for “TTTTTATTTAATAATATATTAATCATATAAATAAAT [GTGCAC_negctrl_site210]” was 9.24; that for “TAAAAAAAAAAAACAAGTACATATATAAATATATAT [XGTACX_site7537]” was 9.53; that for “AAATACTATATCAAGCGTACTTATTTCATGGTAATA [XGTACX_site7878]” was 9.62.
As for “TTTAAAATATTTTCTTGTACGAAGGAACATTTCTTA [XGTACX_site4013]”, the figure is 9.59; as for “AAAAAAAAAAAAAGCACACACACATATGAGTATATA [CACACA_site4682]”, 10.3.
Take AATTTCAAATTGTATGTGCACATGTAGAAGTACTTT: the “gcPBM binding intensity (ln)” value was 9.85.
With “GTGCCTTTAAAAAAAAGTACAAAAAAGAACGAATTA [XGTACX_site3714]”, the “gcPBM binding intensity (ln)” value amounted to 9.51.
The value for “TATATATATATATATTGTACATTTTTTTTTTTTTTT [XGTACX_site7891]” was 9.39; that for “TTTTCATTAAATATATATGCATACCATATGTACATT [GTGCAC_negctrl_site539]” was 9.76.
As for “TATGTAAAGAGTAAGGGTACATGTATAATACGGCTC [XGTACX_site1283]”, the “gcPBM binding intensity (ln)” value was 9.88.
The value for “TTATGGATAAATAAATGTACGTTAAGATAACACAAA [XGTACX_site4208]” was 9.56; that for “ATATACATATGTGTGTGTACTTATATCACATTTTTG [XGTACX_site3785]” was 10.1.
As for “TCGACAAAGGCATATACACACATTTGTAACATAAAT [CACACA_site4471]”, the “gcPBM binding intensity (ln)” value is 9.7.
As to “GTTTTTTTGTTTTAGTGTACCTAAAACTGCATGTAG [XGTACX_site294]”, the “gcPBM binding intensity (ln)” value worked out at 9.75.
Turning to “ACATAAAATAAATATACACACATATGTATTTATTAT [CACACA_site5648]”, the “gcPBM binding intensity (ln)” value was 9.98.
Turning to “AAACCGAATTTACATGAATGTAAATTATGTTGTTTT [CACACA_negctrl_site1834]”, the “gcPBM binding intensity (ln)” value was 9.6.
For the sequence “CAAGAATAAAAATACAAGCACACATGTATGAAATAT [CACACA_site3214]”, the “gcPBM binding intensity (ln)” value worked out at 10.3.
The value for “ATTTCTCTATAGTAATGTACAAAAAAAAGGAAAAAG [XGTACX_site2757]” was 9.63; that for “AATTGCTCGATATATGCACACAGTTTTGTTATTTTT [CACACA_site8465]” was 9.95.
On to “AACATAAATTACTTTTTACACACTAATATAAAATAC [CACACA_site8297]”, for which the “gcPBM binding intensity (ln)” value worked out at 9.7.
As for “AAAACACGCGGACACACACACACACGCCCACATATA [CACACA_site7105]”, the figure is 10.6; as for “ACTTTCAAGGATGTACGTACATATGTATTTTATAAC [XGTACX_site6714]”, 9.75.
Take “ATTTCATTAAAGATTACATGCAATTCTATATTATTT [TGCATGCA_site260]”: the “gcPBM binding intensity (ln)” value came out at 9.64.
Turning to “AATTAATTTATTTTATAAATAGTTAGATCGTCATAA [GTGCAC_negctrl_site660]”, the “gcPBM binding intensity (ln)” value worked out at 9.3.
Take “AACATATTTTTTCTTAAACACACACCGATATATATA [CACACA_site8919]”: the “gcPBM binding intensity (ln)” value came out at 9.98.
“AATATATATTTCTAAGATAAAACCCAAGGATAAAAA [CACACA_negctrl_site735]”: the “gcPBM binding intensity (ln)” value came to 9.62.
As for “TCTGTAAATATGTATACACACATATCTGATCAATAT [CACACA_site5743]”, the “gcPBM binding intensity (ln)” value was 9.96.
Take “TTTTTTATGATTAACACACACACAAAAAAAAAAAAA [CACACA_site4130]”: the “gcPBM binding intensity (ln)” value was 9.89.
The value for “TCATGTAACCATTCATGTACTCAAAAAAAAAAAAAA [XGTACX_site1027]” was 9.21; that for “AAAAAAAAAACAAATACACACGCACCCAAAAAAAAA [CACACA_site8166]” was 10.2.
Take “AAATGAAAGAACAGCACACATATATATTATATATAA [CACACA_site2002]”: the “gcPBM binding intensity (ln)” value was 9.93.
Turning to “TTTTATATATATATATATATATATATATATGTATAT [CACACA_negctrl_site173]”, the “gcPBM binding intensity (ln)” value worked out at 9.75.
For the sequence “TTATATATATGTAATTGTACTTTTAATTTTTTTTTA [XGTACX_site4357]”, the “gcPBM binding intensity (ln)” value worked out at 9.51.
For the sequence “TAATTTTTTTTAAATACACACTGAAATGTGAATTTT [CACACA_site4476]”, the “gcPBM binding intensity (ln)” value worked out at 9.54.
The value for “TATTTTATAATAGGCACACATATAAAAATATATATA [CACACA_site4127]” was 9.59.
The value for “TAATAAAGTATTTTGCGTACTTATTTTATTCTTCTA [XGTACX_site2095]” was 9.64.

The record behind these values is the supplement of paper PMC11417369.
